Broadly, the Kd is the concentration at which binding is half-saturated. A lower Kd goes with higher affinity.

The source of these data is US20240174740A1 (EYEPOINT PHARMACEUTICALS, published 2024).

Assay [1] deals with T1, poly-histidine tagged HPTP-β extracellular domain (ECD) 1/2 (human, UniProt P23467 23-730, limits assumed).
T1 construct: domain: extracellular domain (ECD) 1/2; Captured on the Biacore chip through goat anti-His antibody; also called His-tagged ligand HPTP-β 1/2 ECD; not shown: poly-histidine tag
T1 sequence (looked up): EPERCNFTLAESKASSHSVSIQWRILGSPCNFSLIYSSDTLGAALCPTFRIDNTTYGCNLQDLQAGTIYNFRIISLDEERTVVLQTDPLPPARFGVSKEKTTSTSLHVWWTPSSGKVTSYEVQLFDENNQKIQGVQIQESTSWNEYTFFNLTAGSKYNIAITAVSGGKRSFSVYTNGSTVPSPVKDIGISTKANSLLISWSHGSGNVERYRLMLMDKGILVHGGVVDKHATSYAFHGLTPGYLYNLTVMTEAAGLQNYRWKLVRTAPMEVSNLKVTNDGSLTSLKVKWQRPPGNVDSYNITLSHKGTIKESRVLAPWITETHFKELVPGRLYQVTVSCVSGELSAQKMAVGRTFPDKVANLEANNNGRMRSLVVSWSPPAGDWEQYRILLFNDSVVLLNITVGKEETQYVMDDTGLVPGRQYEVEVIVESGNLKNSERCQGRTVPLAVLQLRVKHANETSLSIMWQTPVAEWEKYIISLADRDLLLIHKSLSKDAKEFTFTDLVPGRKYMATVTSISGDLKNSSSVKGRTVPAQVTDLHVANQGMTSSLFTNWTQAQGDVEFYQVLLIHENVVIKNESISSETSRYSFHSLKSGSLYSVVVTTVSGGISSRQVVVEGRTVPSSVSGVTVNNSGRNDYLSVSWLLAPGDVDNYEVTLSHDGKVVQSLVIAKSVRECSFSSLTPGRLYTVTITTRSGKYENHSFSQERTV
Nature of the assay: Biacore SPR, scouting; His-tagged HPTP-β 1/2 ECD captured by anti-His antibody. An excerpt: For analysis of binding of antibodies to HPTP-β, poly-histidine tagged HPTP-β extracellular domain (ECD) 1/2 was immobilized on a chip surface via anti-His antibodies. Goat anti-His antibody was first immobilized on the surface of the chip by direct immobilization using EDC/NHS (N-ethyl-N′-(3-dimethyl aminopropyl carbodiimide)/N-hydroxy succinamide) coupling chemistry on flow cell 2 of the CM5 (Carboxymethylated dextran coated) chip. Unoccupied sites were blocked with 1M ethanolamine. The His-tagged ligand HPTP-β 1/2 ECD was captured at a response unit (RU) of 50. The analyte (antibody) was flowed over the chip at a single analyte concentration at a time. The binding of analyte to the ligand was monitored in real time to obtain on (kₐ) and off (kd) rates. The equilibrium constant (KD) was calculated from the observed kₐ and kd.
(§1) Chi square analysis was carried out between the actual sensorgram and the sensorgram generated from the BIAnalysis software to confirm the accuracy of the analysis; values of 1-2 were considered accurate and below 1 highly accurate.
(In SPR one partner is held on a chip, and binding of the other changes the refractive index at the surface.)

Assay [2] has as its target T2, VEGF (UniProt P15692-4 27-191, limits assumed).
T2 construct: also called vascular endothelial growth factor
T2 sequence (looked up): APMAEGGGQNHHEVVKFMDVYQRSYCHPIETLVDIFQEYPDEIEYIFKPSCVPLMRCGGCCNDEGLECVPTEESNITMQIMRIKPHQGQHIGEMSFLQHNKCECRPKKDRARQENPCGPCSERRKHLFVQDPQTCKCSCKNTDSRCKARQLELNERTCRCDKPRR
The assay is described as follows: Biacore SPR, scouting at 10 nM analyte; binder immobilised on CM5 chip, VEGF as analyte. How it is done: The assay buffer contained 10 mM HEPES buffer (pH 7.4), 150 mM NaCl, 3 mM EDTA, and 0.05% P20 (polyoxyethylenesorbitan). […] The conjugation buffer contained 10 mM sodium acetate buffer (pH 5). A flow rate of 5 μL/minute was used for capturing ligand. A flow rate of 30 μL/minute was used for kinetic analysis.
(§2) For analysis of binding of the antibodies to VEGF, the antibodies were immobilized on the surface of the chip by direct immobilization using EDC/NHS coupling chemistry on flow cell 2 of the CM5 chip. Unoccupied sites were blocked with 1M ethanolamine. The analyte (VEGF) was flowed over the chip at a single analyte concentration at a time. The binding of analyte to the ligand was monitored in real time to obtain on (kₐ) and off (kd) rates. The equilibrium constant (KD) was calculated from the observed kₐ and kd.
as §1

The target in assay [3] is T2, VEGF. Nature of the assay: Biacore SPR, full kinetics at 0-10 nM analyte; binder immobilised on CM5 chip, VEGF as analyte. How it is done:
as §2
Chi square analysis was carried out between the actual sensorgram and the sensorgram generated from the BNAnalysis software to confirm the accuracy of the analysis; values of 1-2 were considered accurate and below 1 highly accurate.

B1: Aflibercept (Fc fusion)
chain: SDTGRPFVEMYSEIPEIIHMTEGRELVIPCRVTSPNITVTLKKFPLDTLIPDGKRIIWDSRKGFIISNATYKEIGLLTCEATVNGHLYKTNYLTHRQTNTIIDVVLSPSHGIELSVGEKLVLNCTARTELNVGIDFNWEYPSSKHQHKKLVNRDLKTQSGSEMKKFLSTLTIDGVTRSDQGLYTCAASSGLMTKKNSTFVRVHEK[human IgG1 Fc not given here]
notes: Control in the Biacore assays; also called AFL1; Eylea
On to B1, for which the binding result in assay [1] was “no binding (tested: 10 nM of analyte)”. Further, the equilibrium dissociation constant (Kd) came to 0.16 nM with VEGF [2] and 0.0375 nM with VEGF [3].
